Source: the supplement of paper PMC11417369
The other results are listed elsewhere or left out.

system: PfSIP2 AP2 domain 1 (GST-tagged); experiment: gcPBM binding intensity (ln(normalized median fluorescence intensity)); higher = stronger DNA binding
Outline: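 An Agilent 4 × 180k array of primer-extended double-stranded 36-bp intergenic genomic probes, with negative controls, was incubated for 1 h with GST-tagged P. falciparum DNA-binding domains expressed in E. coli. Alexa488 anti-GST antibody detected bound protein, scanned at 488 nm. Binding intensity is the highest Masliner-normalised natural-log median intensity across replicate spots of either probe orientation.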

| Sequence | gcPBM binding intensity (ln) |
| --- | --- |
| AGAGAAAGAAAGAAATGTACAAATACCTACACACAT [XGTACX_site3140] | 6.9 |
| TCAGTTAATGTATATGTACACACGGTGAGTATATAT [CACACA_site3346] | 6.96 |
| CTATAAATGAATGTTTGTACTTAATAATAAAAGAAA [XGTACX_site3170] | 6.92 |
| TTTTTTACAAATGATATCATTTCTTTAAATATTAAA [TGCATGCA_negctrl_site279] | 6.95 |
| TATTTTTTTCATAACAGTACAATAATATATATTTTT [XGTACX_site5739] | 7.07 |
| GCACACACAAAAAAAGCATGCATACTAGCTATTTTT [TGCATGCA_site18] | 6.99 |
| AATCAAAAAAAATGTTGTACGCCTAATTATAATTAA [XGTACX_site8906] | 7.37 |
| AATGAAATAAATAAGGGTACACATAAATATATATAT [XGTACX_site7006] | 8.84 |
| TATTCGTGCAATAATAGTACACTTATAAATTATTCA [XGTACX_site8993] | 7.7 |
| AAAAAACACCCATACACACACACACCGATATATATA [CACACA_site5808] | 7.59 |
| TTTATAAGAATTACTAGTACATATAAGGAATTATAT [XGTACX_site3953] | 7 |
| CATTTTTTATAATAATGTACATGTATTAAAAAAAAA [XGTACX_site6390] | 6.91 |
| TTATAAATTTAAAGTAGTACTATACTACTATTTTAT [XGTACX_site3038] | 6.69 |
| ATCCACAAAATAGGATGTACATATAAAATAAATAAA [XGTACX_site5362] | 7.13 |
| TATGGAATAATACGCGTACACACATATATATATTAA [CACACA_site132] | 7.3 |
| CATTATGTCATAAATGCACACATATATATATACATA [CACACA_site8454] | 7.38 |
| TATTTAAAAGTATATACACACAACTGGAATGAAAAG [CACACA_site4126] | 7.37 |
| TATTTTAATCGTAAGTGTACTCTTTTAAGTATATGT [XGTACX_site8591] | 7.01 |
| ATTATAACACCTCCCCCCCTTTTTTTATGAAGACCA [CACACA_negctrl_site1043] | 9.67 |
| TATGTATGCCCTAATGCATGTGAACAAAATAATATA [TGCATGCA_site407] | 6.87 |
| AAAATTAAAAAAATAAATACATTATATAATTAAAAA [CACACA_negctrl_site1426] | 6.77 |
| AACAGACATAGACACACACACATATATTTATTTATA [CACACA_site7571] | 7.17 |

| Sequence | gcPBM binding intensity (ln) |
| --- | --- |
| ATGCAAATAATATAAAGTACACAACATCGCCCAAAG [XGTACX_site1825] | 7.45 |
| TTTTTTAAATTTTGAATTATAACTACATTAAAGAAA [GTGCAC_negctrl_site279] | 6.84 |
| TGTTGTAACAAAAGTACACACACATTTCTATAAATT [CACACA_site8894] | 7.27 |
| ATTACATAACAATATACACACTATTGATTAAAGAGA [CACACA_site5602] | 6.99 |
| ATAATATAAATAAAGCGTACTTAATTTTATATATAT [XGTACX_site4626] | 7.17 |
| TTTTTTTTTTTTTTTACACACTATAGGGAAAAAAAA [CACACA_site1916] | 7.05 |
| AAAAATATAATATATCTAAAATTTTTCATTAAATAT [XGTACX_negctrl_site274] | 6.73 |
| ACATATATATATTTATATATATATATATATATGTGA [CACACA_negctrl_site613] | 7.44 |
| ATAAATAAAAATACATGAACAGGTCAGGTTATTTTT [CACACA_negctrl_site1007] | 6.67 |
| TTATATATAGAATAAACATGCATTTGTATATGAATA [TGCATGCA_site604] | 6.96 |
| TCACATACATTACTTACACACCATATTAATATATAC [CACACA_site8047] | 7.32 |
| AATAAAAAATAAAAAATAAACAGTATACATATATAT [GTGCAC_negctrl_site31] | 7.17 |
| TGTATATAAACAAGGGGTACAATAATATAAATAAAT [XGTACX_site8675] | 7.61 |
| TCATATTAATTTGATAGTACATATACTTTGAAGTCC [XGTACX_site3767] | 7.18 |
| ATATATTTTATATGTGTGCACTATATATATATATAT | 10.2 |
| TATTTTATAATTTACCGTACATTAATTGTATTATTA [XGTACX_site5722] | 6.99 |
| ATATATTTTAAAGAAAGTACCCACCGTTTGAAGTCA [XGTACX_site2273] | 7.33 |
| ATTAATATATAACGTGCACACACACCGTTACGTATG [CACACA_site8543] | 8.8 |
| TGTTATATATATTGACTTAATAAATAAATAAATATA [GTGCAC_negctrl_site590] | 6.83 |
| TCTTATTTTATAAATATAAATATATATATATATATA [GTGCAC_negctrl_site479] | 9.24 |
| TTACAAAACACTTATACACACATATAAATATAAATA [CACACA_site7307] | 7.26 |
| CTCCTCATATAATTTTGTACATAAAAAATTACCATT [XGTACX_site3879] | 7.31 |

| Sequence | gcPBM binding intensity (ln) |
| --- | --- |
| TATTTTGCTCATCCATGTACACATAGATATATTTTA [XGTACX_site8244] | 7.08 |
| ATATTATGTGAAGAACGTACAAATTTTTACACTATA [XGTACX_site1485] | 7.11 |
| TTCTTTTCAGAAGGAAAGAATTATAACATATCATAA [XGTACX_negctrl_site548] | 6.73 |
| CTATAAATAACAGAAAGTACATATACATGGATATAT [XGTACX_site3317] | 6.92 |
| TTTCTAAATGTTTATATATATATATATATATAAATA [GTGCAC_negctrl_site397] | 7.44 |
| TAAAAGAAATAAGGTGCACACATATACATATATATA [CACACA_site8037] | 11.8 |
| AATATATCAAAAATTGGATAGTTTCTTATAAAAAAT [CACACA_negctrl_site39] | 6.62 |
| GTAAAAGTTAAAAAAACATGCAAAATTTAAAAAAAA [TGCATGCA_site637] | 6.87 |
| ATACATATATATATTCTACACACTTATAATATAATA [CACACA_site8782] | 7.36 |
| ACTATATTTGCCCTTTTAATCAGAACAAAAAAAAAA [CACACA_negctrl_site1051] | 7.8 |
| ATTATATTCCAAGTTTGTACATATATATAAAAGTAT [XGTACX_site1631] | 7.32 |
| AGTATAAAAATAAGCACACACACAAATATATATTTA [CACACA_site923] | 7.24 |
| ATAATATAAATATTAACACACATCCTTTTATGTATA [CACACA_site6685] | 6.92 |
| TTTTCTTTTACAAAGGGTACATAATTTAAATTCATA [XGTACX_site3876] | 6.9 |
| TTTCTTCTGCATTATGCACACTATAATTCGTTAAAA [CACACA_site5568] | 8.08 |
| AAAAAAAAAAAATCATGTACTTATTTTTCATTGTTG [XGTACX_site1542] | 6.99 |
| AAATAAGCATATACAAACATGCATACATATAAATAA [CACACA_negctrl_site246] | 6.91 |
| TATATGCACTTAATATGTACACAAAAAAAAAAAAAA [XGTACX_site6199] | 8.72 |
| TTTATATATTATACATGTACATATTTATTTATATAA [XGTACX_site3474] | 7.11 |
| CTTATATTAAAAACTTGTACACATGTTAAGAATTTT [XGTACX_site5857] | 6.92 |
| ATATTATAATTGAAGGTGCAAAATGTAATATAGATA [GTGCAC_site9661] | 10.6 |
| ATTATTATTTAAAAAAGTACATTGAAGTTCATAATA [XGTACX_site3575] | 7.33 |

| Sequence | gcPBM binding intensity (ln) |
| --- | --- |
| ATTCATTTTTTGGGGGGTACACCCTTTTAAACATTT [XGTACX_site4797] | 8.41 |
| TGAAATGATATATAAACACACATATATATATATATA [CACACA_site3511] | 9.48 |
| ATTTTTAATGTGATCACACATAAATATTATATATAT [CACACA_site5641] | 7.34 |
| GTATAAAAAAATATATGTACTTATTTACATATATAT [XGTACX_site4744] | 7.17 |
| CTGGAGTTAAAAATGTGTACCTAAAAAATTTTGTTC [XGTACX_site5554] | 7.11 |
| ATTATTATATATAAAACACACAATTTTGTTTTCACA [CACACA_site3965] | 6.95 |
| ATATAATAATATTAAAGTACATGCATATATATTTAT [XGTACX_site7422] | 7.01 |
| ACTATTTAAATGCAAAGTACTTTGATAATAAACAAT [XGTACX_site2608] | 7.3 |
| TAATATAACAAAAAAATAAAATAAAATAAAAAATAA [CACACA_negctrl_site109] | 6.94 |
| ATTTTTTAAAAAAACATACACACAAAAAAAAAAAAA [CACACA_site3936] | 6.99 |
| CATAATATCTCTTTGTGTACATATAGTTATTATTAT [XGTACX_site7688] | 6.92 |
| TATAAACATAAATATACACACAAACATATAGGTATT [CACACA_site6690] | 6.87 |
| CTTGTATATAAACACACACACACTTTCTTTTTTTAA [CACACA_site8602] | 7.17 |
| AAAAAAAAAAAAAAAAAAAAAAATATATATATATTT [GTGCAC_negctrl_site502] | 8.51 |
| ATTAATCAATATAGGCGTACAAAAAAAATAAATTAT [XGTACX_site1513] | 7.12 |
| CCCCTTAATTTATTTTGTACATATAATTTTTTTTTT [XGTACX_site3270] | 7.21 |
| GTATTTTTAAATGACACACACATATATAAATATGTA [CACACA_site6880] | 7.02 |
| ACAAAAATAAGCAAATGTACATATGTATAATATATT [XGTACX_site2492] | 6.96 |
| CGAACAAACAAATAAACACACAAAAAAAAATATATA [CACACA_site1825] | 6.79 |
| ATACTTATGATAAATACACACTTGAAATTAAGGATT [CACACA_site4772] | 6.94 |
| TTTTTTAAAAGATATATAATATGTATGAATATTCAA [XGTACX_negctrl_site380] | 6.69 |
